# Assay results taken from the supplement of paper PMC10126150.
# Values marked as one replicate rest on one cluster of the flow cell; about a third of the high ones do not repeat.
# Tested on: ATP
# Assay: switch fluorescence ratio, 500 uM ATP over buffer (Cy3 cluster intensity, sum of 5 cycles each) (fold (ratio)); higher = stronger signal-on switching upon ATP binding; sequences stand for … in TCGTCGGCAGCGTCAGATGTGTATAAGAGACAGTTTTTTTTTTTTTTTTTTTTTTTTT…TC
# Settings: aptamer strand: ATP DNA aptamer (quencher-CACCTGGGGGAGTATTGCGGAGGAAGG + anchor), 100 nM annealed; ATP concentration: 500 uM; one replicate
# In short: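 After annealing to 100 nM quencher-labelled ATP aptamer, Cy3-labelled switching-strand clusters on a modified Illumina MiSeq flow-cell were imaged in selection buffer. A second image followed after 15 min with 500 uM ATP at 22 °C, and five such buffer/ATP cycles were done, each separated by NaOH stripping and re-annealing. The fluorescence ratio, averaged per switch-domain sequence, is summed target-cycle over summed buffer-cycle Cy3 intensity per cluster, with clusters outside 100-1000 RFU excluded.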
# 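Note: ATP exposure 15 min at 22 °C before imaging.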
row,Sequence,switch fluorescence ratio
1,GGGCGTAATA,1.04
2,GGGCGTTCGG,0.977
3,GGGCGTTCTA,0.96
4,GGGCTAACTT,0.983
5,GGGCTCCCT,1.02
6,GGGCTCGGGG,1.01
7,GGGCTGAACT,1.01
8,GGGCTGCAGT,0.985
9,GGGCTGCAT,1
10,GGGCTGCTAT,0.942
11,GGGCTTACAA,0.985
12,GGGCTTTC,1.01
13,GGGGAAGAGC,1.04
14,GGGGAAGGCG,1.01
15,GGGGAGCTGA,1.02
16,GGGGAGGCTC,1.07
17,GGGGAGTGGC,1.01
18,GGGGATCTGA,0.939
19,GGGGATTGCA,1.04
20,GGGGCAA,1.22
21,GGGGCAAAA,1
22,GGGGCCCA,0.988
23,GGGGCCCGAG,0.978
24,GGGGCCGGAT,1.12
25,GGGGCCTATT,0.951
26,GGGGCCTTCC,3.2

row,Sequence,switch fluorescence ratio
1,GGGGCGCTAC,1.45
2,GGGGCTCTTC,0.958
3,GGGGCTGGAT,1
4,GGGGCTTTGC,0.937
5,GGGGGATAA,0.973
6,GGGGGCAAAG,0.992
7,GGGGGCCTAT,1.02
8,GGGGGGTCG,1.04
9,GGGGTAACGC,1.06
10,GGGGTACAAC,0.962
11,GGGGTCAAGA,0.936
12,GGGGTCTAAG,0.957
13,GGGGTTACCT,1.07
14,GGGGTTATC,0.934
15,GGGGTTGACT,0.979
16,GGGTAATATT,1.04
17,GGGTACAGAA,1.01
18,GGGTAGAAGG,1.01
19,GGGTAGAATA,1.03
20,GGGTAGCATA,1.01
21,GGGTATGCTA,1
22,GGGTCACTTA,1.03
23,GGGTCAGAGT,1.01
24,GGGTCAGGGT,1
25,GGGTCAGTA,1.05
26,GGGTCCGAGG,1.01

row,Sequence,switch fluorescence ratio
1,GGGTCCGTCG,0.991
2,GGGTCCGTGG,1.01
3,GGGTCGACTC,0.991
4,GGGTCGTGAT,0.964
5,GGGTCTAATC,1.03
6,GGGTCTCTAT,0.953
7,GGGTGAACGC,1.07
8,GGGTGACCGG,0.95
9,GGGTGATTCA,1.04
10,GGGTGCAGGT,0.975
11,GGGTGGAGA,1.08
12,GGGTGTCGGG,0.991
13,GGGTGTTGCA,1.01
14,GGGTGTTGCC,1.03
15,GGGTTACATC,0.997
16,GGGTTACGGC,1.08
17,GGGTTACTTA,1.01
18,GGGTTAGGCT,1.02
19,GGGTTCCAAT,0.998
20,GGGTTCCTTT,1.01
21,GGGTTCGAA,1.04
22,GGGTTCGGGT,0.966
23,GGGTTCTCGA,0.972
24,GGGTTGCCGG,1.01
25,GGGTTGCGCC,1
26,GGGTTTAACT,1.06

row,Sequence,switch fluorescence ratio
1,GGGTTTAGCC,0.996
2,GGGTTTCCAT,0.991
3,GGGTTTGACC,0.966
4,GGGTTTGG,0.973
5,GGTAAAGGAG,0.985
6,GGTAAATGCG,1.03
7,GGTAACATAA,1.01
8,GGTAACCGTC,1.03
9,GGTAACCTAG,1.01
10,GGTAACGCT,1.03
11,GGTAAGAAAT,0.987
12,GGTAAGACAG,0.932
13,GGTAATGTAG,1.03
14,GGTACACTGT,1
15,GGTACGGGT,0.967
16,GGTACGGTTC,0.971
17,GGTACGTGGG,0.986
18,GGTACTATAC,1.41
19,GGTACTCCCA,1.31
20,GGTACTGACT,1.12
21,GGTACTGTTG,0.986
22,GGTAGAACCT,1.37
23,GGTAGATTGA,0.994
24,GGTAGCCTTG,1.03
25,GGTAGCGGCA,1
26,GGTAGGCATC,0.97

row,Sequence,switch fluorescence ratio
1,GGTAGTAATC,1.15
2,GGTAGTTAAT,1.02
3,GGTAGTTCGT,0.987
4,GGTAGTTCTC,1.02
5,GGTATAAGGC,0.992
6,GGTATACAGC,1.02
7,GGTATATAAG,1.02
8,GGTATATTTC,1.01
9,GGTATCCCTG,1.02
10,GGTATGAGCG,1.05
11,GGTATGCACT,0.993
12,GGTATGGGCT,1.02
13,GGTATGGGGC,1.03
14,GGTCAAACT,0.998
15,GGTCAAATTC,1.01
16,GGTCACAAAT,0.994
17,GGTCACAGGA,0.985
18,GGTCACGTC,0.954
19,GGTCATCGGA,0.952
20,GGTCCAGCG,0.993
21,GGTCCATGAC,0.96
22,GGTCCATTCT,0.991
23,GGTCCCGTGC,1.04
24,GGTCCGACGC,2.82
25,GGTCCGCCGG,1.11
26,GGTCCGTGCG,0.995

row,Sequence,switch fluorescence ratio
1,GGTCGAGTCT,0.977
2,GGTCGATG,0.977
3,GGTCGCGATC,1.03
4,GGTCGCTAGG,0.966
5,GGTCGGACCG,1.01
6,GGTCGGTAAC,0.991
7,GGTCGTAATC,1.16
8,GGTCGTACTG,0.949
9,GGTCGTCCAA,1.02
10,GGTCGTCGAG,0.929
11,GGTCGTCGCA,0.953
12,GGTCGTCGGG,1.06
13,GGTCGTCTTC,0.999
14,GGTCGTTAAC,0.987
15,GGTCTAAAT,0.986
16,GGTCTAGGGG,0.99
17,GGTCTATGAG,0.979
18,GGTCTATGGA,0.956
19,GGTCTGAACT,0.967
20,GGTCTTCAAG,0.998
21,GGTCTTGGAA,0.981
22,GGTCTTGTCG,0.927
23,GGTCTTGTGT,0.986
24,GGTGAAATGG,1.02
25,GGTGACAATG,1.02
26,GGTGACACAT,0.988

row,Sequence,switch fluorescence ratio
1,GGTGACGGCC,0.931
2,GGTGAGCACA,1.04
3,GGTGAGGAAC,0.997
4,GGTGAGTGGG,1.02
5,GGTGATCTAA,1.01
6,GGTGATTTTT,1.03
7,GGTGCATCGA,1
8,GGTGCCATTA,1.02
9,GGTGCCGGGC,0.964
10,GGTGCCTG,1
11,GGTGCGTAAT,1
12,GGTGCTAGGT,0.976
13,GGTGCTCCCC,1.54
14,GGTGCTTAA,1.04
15,GGTGGACACG,1.11
16,GGTGGAGCCG,0.993
17,GGTGGAGCGC,0.969
18,GGTGGAGGG,1.01
19,GGTGGATACG,1.05
20,GGTGGCGACG,1.03
21,GGTGGCGGTC,0.985
22,GGTGGTATAA,0.974
23,GGTGGTATTC,0.966
24,GGTGGTCCCA,0.949
25,GGTGGTGCCA,0.983
26,GGTGGTGGT,0.991

row,Sequence,switch fluorescence ratio
1,GGTGGTGTGC,0.984
2,GGTGTACAGG,0.992
3,GGTGTCCAAG,0.972
4,GGTGTCCCCT,1.08
5,GGTGTCGGG,0.992
6,GGTGTGAGAC,0.978
7,GGTGTTGTCG,0.971
8,GGTGTTTAAC,0.971
9,GGTTAATAG,0.988
10,GGTTAATGCC,1
11,GGTTACAGCG,0.992
12,GGTTACAGGT,1.02
13,GGTTACCATT,0.985
14,GGTTACGGCC,1.09
15,GGTTACTCAG,1.07
16,GGTTACTTGC,1.01
17,GGTTAGTGGC,0.967
18,GGTTATTTCA,1.21
19,GGTTCAAACT,1.01
